Some of the results follow. The energies were worked out here from pooled read counts, against the library average; single values are noisy.
target: T1, Pho4 (S. cerevisiae) (UniProt P07270); test: relative binding free energy (BET-seq); higher = weaker binding; details: reference: library average
T1 sequence: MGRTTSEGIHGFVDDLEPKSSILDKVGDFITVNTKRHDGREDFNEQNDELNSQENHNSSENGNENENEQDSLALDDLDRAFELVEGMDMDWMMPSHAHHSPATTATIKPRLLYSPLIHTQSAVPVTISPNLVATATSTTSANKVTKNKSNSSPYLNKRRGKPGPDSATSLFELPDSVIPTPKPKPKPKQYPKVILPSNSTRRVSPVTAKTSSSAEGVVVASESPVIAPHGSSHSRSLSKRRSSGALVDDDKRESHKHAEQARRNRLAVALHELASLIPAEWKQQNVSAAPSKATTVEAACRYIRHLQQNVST

| Sequence | relative binding free energy [kcal/mol] |
| --- | --- |
| ATGAACACGTGATTGG | 0.15 |
| AGTAGCACGTGTCGGC | -0.08 |
| TGGTGCACGTGAATAA | 0.14 |
| ATTCTCACGTGGGATT | 0.19 |
| TCAGACACGTGTTGGG | 0.06 |
| TTATCCACGTGAGGTA | 0.17 |
| TGGTGCACGTGGCTAA | 0.02 |
| CGGCGCACGTGGGCGT | -0.35 |
| GCGGTCACGTGAAATT | 0.54 |
| GGCGGCACGTGTAGTG | 0.07 |
| GAATGCACGTGTGCTG | 0.04 |
| ATTTGCACGTGGGTCG | 0.01 |
| AGGAGCACGTGTAGGC | -0.16 |
| AGTAGCACGTGATATT | 0.19 |
| AAATGCACGTGCGGGG | -0.03 |
| AGGGGCACGTGAAAGA | 0.25 |
| AAGAGCACGTGAGGTA | 0.07 |
| TTTGACACGTGGAGGC | 0.02 |
| ATGTTCACGTGCTTGA | 0.28 |
| GGTTCCACGTGGTGTT | 0.13 |
| AGTGTCACGTGTTAGG | 0.07 |
| CTGAGCACGTGTGTAG | -0.02 |
| TATCGCACGTGAGGTC | 0.21 |

| Sequence | relative binding free energy [kcal/mol] |
| --- | --- |
| ATAGGCACGTGCGTGA | -0.16 |
| GTGAACACGTGATGGA | 0.17 |
| TGACGCACGTGAGGGG | 0.11 |
| CGGGGCACGTGTGGCA | -0.11 |
| AGTACCACGTGGTGGA | -0.11 |
| CGTTTCACGTGAGAGG | 0.35 |
| AATAACACGTGGTGAT | 0.03 |
| GGGGGCACGTGTTAGG | -0.09 |
| CTGTGCACGTGATATG | -0.04 |
| TGCCGCACGTGTTGGT | 0 |
| AGTGACACGTGTTGAG | 0.01 |
| TGAAGCACGTGGGGTG | -0.2 |
| GCGGGCACGTGATGCG | -0.01 |
| TGGGCCACGTGTGTGC | -0.01 |
| GATGGCACGTGGGGTC | -0.12 |
| ATTTGCACGTGCTTGA | -0.18 |
| GCTCGCACGTGGGGTG | -0.25 |
| GATTTCACGTGGTCTT | 0.26 |
| TTTGCCACGTGCGGTA | -0.18 |
| TTGCTCACGTGGTGAG | 0.25 |
| AGGTGCACGTGGTTCT | -0.17 |
| TGTTACACGTGGTTAG | 0.03 |
| TGCTGCACGTGAGTGA | 0.05 |

| Sequence | relative binding free energy [kcal/mol] |
| --- | --- |
| TCAGTCACGTGATGTG | 0.11 |
| TGGTGCACGTGATTTG | 0.01 |
| CAGATCACGTGGTGTG | 0.05 |
| GGTGGCACGTGTTTCT | 0.01 |
| TAGGTCACGTGTGACT | 0.21 |
| AATAACACGTGTTGTA | -0.04 |
| TGTCTCACGTGTGTTT | 0.14 |
| AGTTGCACGTGAACGT | 0.17 |
| TTTTTCACGTGAACGT | 0.44 |
| CCGGACACGTGGGGGC | -0.05 |
| GTGCTCACGTGGTAGA | 0.1 |
| TTTGACACGTGGTATC | 0.01 |
| TTCTGCACGTGTTGAA | 0.08 |
| GTGGTCACGTGTAATC | 0.24 |
| GATGGCACGTGATGTG | 0.09 |
| AGAGACACGTGAGTGT | 0.28 |
| AGCTGCACGTGTGATT | 0.1 |
| TTGATCACGTGGATGT | 0.18 |
| TTTAACACGTGCAGGT | 0.01 |
| GTTGGCACGTGTCGGT | 0.02 |
| CGTAGCACGTGGGTCT | -0.08 |
| TCAAGCACGTGAGTTT | 0.2 |
| GGATTCACGTGACTGG | 0.46 |

| Sequence | relative binding free energy [kcal/mol] |
| --- | --- |
| GTTTGCACGTGCTGGT | 0.04 |
| AAGGGCACGTGGTGGC | -0.17 |
| GGTATCACGTGGTTCG | 0.18 |
| GGTCCCACGTGGAGGT | 0.03 |
| CGGGCCACGTGGTTGA | -0.2 |
| GGTATCACGTGACTTG | 0.31 |
| TCTTTCACGTGTATTG | 0.11 |
| TTTGTCACGTGCGTGG | -0.01 |
| CCGCGCACGTGGGGGT | -0.37 |
| GGTCACACGTGGATGG | 0.06 |
| ATATACACGTGTGATT | -0.04 |
| GATCACACGTGGGGCG | 0.13 |
| TGGTACACGTGCGTCA | -0.02 |
| AGTTTCACGTGTTAGG | 0.25 |
| GAAGGCACGTGGACAG | 0.02 |
| ATGGACACGTGTAGTA | 0 |
| GAGTGCACGTGCAGTT | 0.01 |
| TATGACACGTGTGTGT | -0.09 |
| AACTGCACGTGTTTTG | 0.08 |
| TCATTCACGTGTGGCG | 0.27 |
| TTCGTCACGTGAGAGT | 0.38 |
| AGGGTCACGTGTGATG | 0.13 |
| TTATTCACGTGGTCTC | 0.11 |

| Sequence | relative binding free energy [kcal/mol] |
| --- | --- |
| TTGCGCACGTGGTTGC | -0.08 |
| ATTTACACGTGTTGTA | 0.16 |
| CGGCGCACGTGGGATG | -0.23 |
| GTGCACACGTGAGGTA | 0.13 |
| GGTGACACGTGCAGCG | 0.01 |
| TTTTTCACGTGCAGCG | 0.36 |
| CTTTGCACGTGTTGTT | -0.01 |
| AGTGACACGTGTGCGA | -0.11 |
| TTTTACACGTGGATTT | 0.12 |
| TCTTGCACGTGGCGGT | -0.18 |
| TTTGTCACGTGGGGCA | -0.14 |
| GTCTTCACGTGATTGG | 0.33 |
| GGTTGCACGTGGTGTC | 0.02 |
| GAGGTCACGTGCTTGG | 0.23 |
| GAATTCACGTGTAGTC | 0.5 |
| CTTTGCACGTGCAGTT | 0.02 |
| GCTAACACGTGGGGGT | -0.08 |
| CCTGTCACGTGATTGT | 0.23 |
| TATTGCACGTGGTTAG | -0.07 |
| TGTAACACGTGTGTTG | 0.04 |
| GAAATCACGTGTTTGT | 0.18 |
| TTCTTCACGTGGGATG | 0.2 |
| ATTTTCACGTGACTAT | 0.3 |

— the BET-seq Pho4 binding data (Le et al. 2018)
